Measured values as given in the supplement of paper PMC4166925.
± gives the standard deviation of the averaged measurements. Whole data set: some 33,000 sequences, median “E-score (dimensionless, -0.5 to 0.5)” near -0.046, cut for the highest 2% near 0.36. The list shows a part of the results.

Test system: T1, SpTbr T-box DNA-binding domain (GST fusion)
T1 sequence: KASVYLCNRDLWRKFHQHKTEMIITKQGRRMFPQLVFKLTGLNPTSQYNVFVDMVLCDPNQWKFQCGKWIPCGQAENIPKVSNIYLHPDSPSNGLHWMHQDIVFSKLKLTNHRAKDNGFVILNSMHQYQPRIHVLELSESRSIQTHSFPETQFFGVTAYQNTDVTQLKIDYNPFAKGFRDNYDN
Experiment: PBM E-score of 8-mer (E-score (dimensionless, -0.5 to 0.5)); Tbr is Tbrain of the sea star Patiria miniata (Pm) or the sea urchin Strongylocentrotus purpuratus (Sp); higher = stronger binding preference; most listed sequences are background and not binding sites
Settings: the construct has about 5 more residues each side
Protocol: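 Universal protein-binding microarray (Agilent AMADID 016060, 60-bp probes with a 35-bp variable region) incubated with 200 nM GST-fused Strongylocentrotus purpuratus Tbr T-box DNA-binding domain (residues 362-554) in PBS pH 7.5. Scored for every ungapped 8-mer (given with its reverse complement) as E-score (range -0.5 to 0.5; >0.45 counts as bound) and Z-score of median probe intensity. Two replicate arrays (datasets 1 and 2).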
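Also: protein at 200 nM in PBS on universal double-stranded arrays.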

Row | Sequence | PBM E-score of 8-mer
1 | AAAAGGGT | -0.138 ± 0.12
2 | TCGGATAA | -0.214 ± 0.025
3 | TCTTATAA | -0.0607 ± 0.018
4 | ATCGCCGA | 0.117 ± 0.021
5 | AGTCCCCA | -0.166 ± 0.027
6 | CGCGTAAC | 0.148 ± 0.0036
7 | ATTAAAGC | -0.0839 ± 0.019
8 | TCACTCCA | 0.141 ± 0.017
9 | CAGCGCTC | -0.00268 ± 0.0042
10 | CGGTCAGA | -0.195 ± 0.057
11 | CTTCGCGA | 0.285 ± 0.032
12 | TCAGGTAA | 0.0384 ± 0.083
13 | AAATGGAC | -0.118 ± 0.026
14 | AGCAGTTC | -0.00386 ± 0.018
15 | CGTTATAA | 0.0844 ± 0.057
16 | ATCAGCCA | -0.0646 ± 0.0091
17 | TACGGGGA | -0.0682 ± 0.053
18 | AGGCCATC | -0.285 ± 0.022
19 | AGACTGTG | 0.0889 ± 0.054
20 | ATATCCGC | -0.00017 ± 0.072
21 | CAAAAAGG | -0.00362 ± 0.0023
22 | AGTTGTTC | 0.00852 ± 0.024
23 | CTAATGTC | 0.00498 ± 0.062
24 | GTACGGAA | -0.114 ± 0.015
25 | ATATCGGA | -0.0485 ± 0.032

Row | Sequence | PBM E-score of 8-mer
26 | CAGCCTGG | -0.0718 ± 0.022
27 | TACCCGTA | -0.183 ± 0.051
28 | CTCCTACC | -0.133 ± 0.027
29 | CTCCATTC | -0.224 ± 0.03
30 | CACAGTAC | -0.0558 ± 0.017
31 | AAATCATT | -0.134 ± 0.1
32 | CTACGGTC | -0.269 ± 0.056
33 | CCCTTTTC | -0.0676 ± 0.12
34 | AGAATCCC | -0.102 ± 0.029
35 | CTCGGGGC | -0.258 ± 0.027
36 | CACAACAC | 0.3898 ± 0.0017
37 | CAGTCCGG | -0.197 ± 0.0023
38 | ATTGCTCC | -0.0861 ± 0.019
39 | GTATAGCA | -0.00131 ± 0.015
40 | CCTTCCAA | -0.1663 ± 0.0016
41 | CATAGGCG | 0.151 ± 0.051
42 | TACACCTA | 0.377 ± 0.0086
43 | GGGCAAAA | -0.132 ± 0.074
44 | ACGGGCAT | -0.182 ± 0.047
45 | GCTAGAGC | -0.0423 ± 0.028
46 | GCAGGGAC | -0.14 ± 0.03
47 | GAACGCTA | 0.0577 ± 0.012
48 | CCGGTGCC | -0.118 ± 0.027
49 | ACCTAGCC | -0.0606 ± 0.055
50 | AGGCTGTG | 0.189 ± 0.021

Row | Sequence | PBM E-score of 8-mer
51 | ATGCCATC | -0.154 ± 0.041
52 | AACCCGGA | -0.16 ± 0.062
53 | ACGCGGTA | 0.178 ± 0.021
54 | GTTCAGTA | -0.202 ± 0.062
55 | GCATATAC | -0.081 ± 0.029
56 | CGTTATCC | -0.0209 ± 0.02
57 | AACAGACC | -0.0548 ± 0.02
58 | CAACTCTG | 0.225 ± 0.013
59 | CTCGGATC | -0.178 ± 0.045
60 | CCTGACCG | -0.0601 ± 0.0013
61 | AAAGATTT | -0.0898 ± 0.039
62 | CATTCGCC | -0.147 ± 0.039
63 | CCCAAAAA | -0.159 ± 0.064
64 | TAATCGTA | -0.048 ± 0.022
65 | TCCTGAGA | -0.253 ± 0.088
66 | AGAGGATC | -0.392 ± 0.012
67 | AAGTAATA | -0.27 ± 0.046
68 | CCAAGAAC | -0.0859 ± 0.048
69 | AGTTCAAT | -0.0516 ± 0.0057
70 | CCGCCTAC | -0.182 ± 0.053
71 | ACCTAATG | 0.0313 ± 0.041
72 | GCACACAC | 0.294 ± 0.035
73 | GTCCACAA | 0.153 ± 0.039
74 | TTAGCTAA | -0.00265 ± 0.075
75 | ACTACAAA | -0.0142 ± 0.015

Row | Sequence | PBM E-score of 8-mer
76 | ATTGCGTG | 0.084 ± 0.026
77 | ACGATCCG | 0.0313 ± 0.051
78 | ACCACAAG | 0.0963 ± 0.0014
79 | CGGTCCGC | 0.0643 ± 0.093
80 | ATGTCGAG | 0.0154 ± 0.069
81 | GGTCGAGA | -0.184 ± 0.033
82 | ATTAGATC | -0.194 ± 0.071
83 | GCAAGCTA | -0.0994 ± 0.048
84 | CACCTACA | 0.371 ± 0.014
85 | AACTGACT | -0.141 ± 0.043
86 | GCGTACAC | -0.104 ± 0.027
87 | ATCGGATG | -0.0522 ± 0.041
88 | CTTGCAGC | 0.0211 ± 0.097
89 | AACGTAAG | -0.0124 ± 0.092
90 | GATTCTGA | -0.173 ± 0.037
91 | ATCTTTAC | -0.114 ± 0.069
92 | CAATACTG | -0.127 ± 0.0078
93 | TTGAAAAA | -0.0577 ± 0.027
94 | AAAGTCTT | -0.152 ± 0.062
95 | ACTCTACT | 0.00872 ± 0.0077
96 | ACGACGAA | -0.00509 ± 0.037
97 | AGAGAAGA | -0.16 ± 0.011
98 | CCCCCAGA | -0.224 ± 0.0064
99 | ATTGCGTC | -0.174 ± 0.089
100 | CACCCAAC | 0.257 ± 0.028

Row | Sequence | PBM E-score of 8-mer
101 | AACTTATG | -0.262 ± 0.033
102 | CGTAATTC | -0.172 ± 0.019
103 | ATAAGCTA | -0.1 ± 0.014
104 | CGCCAGTC | 0.104 ± 0.048
105 | ACTTGCAG | 0.147 ± 0.021
106 | CTTAACCC | -0.000625 ± 0.011
107 | ACCTACTC | -0.00154 ± 0.02
108 | AGCCGGCC | -0.138 ± 0.033
109 | AAGTCAGA | -0.152 ± 0.044
110 | CACGGTCA | -0.0942 ± 0.082
111 | AAGCTTGA | -0.11 ± 0.042
112 | AGTATGTC | 0.0771 ± 0.044
113 | GCCCAAAC | -0.357 ± 0.018
114 | GAAATATC | 0.0425 ± 0.043
115 | AGGTAACT | -0.165 ± 0.028
116 | CCTCAAGA | -0.0881 ± 0.046
117 | AAAGAGAA | -0.198 ± 0.041
118 | CCCTTTCC | -0.2 ± 0.064
119 | ACCAACAA | 0.0687 ± 0.00095
120 | TCAACGAA | 0.0106 ± 0.045
121 | ATGGCCAG | -0.362 ± 0.012
122 | AGCGAAAA | -0.0276 ± 0.011
123 | GTATGCCA | -0.0832 ± 0.062
124 | ACTTTCCC | -0.0292 ± 0.0071
125 | CTTGTTTA | -0.114 ± 0.071

Row | Sequence | PBM E-score of 8-mer
126 | AACGCGGT | -0.0462 ± 0.038
127 | CAATCTTA | -0.0254 ± 0.06
128 | ACCTTGCA | -0.0177 ± 0.044
129 | CCGTGATC | 0.15 ± 0.011
130 | ACCAGCGG | 0.0935 ± 0.055
131 | ACATGGCT | -0.128 ± 0.04
132 | ATGGATTA | -0.151 ± 0.0019
133 | CCTCATAA | -0.0692 ± 0.021
134 | AGTTGGTG | 0.125 ± 0.031
135 | GCGGCGAC | 0.141 ± 0.006
136 | ACAACCAC | 0.0825 ± 0.069
137 | CCACCGGA | -0.22 ± 0.017
138 | ATCATTGC | -0.206 ± 0.041
139 | AGACAAGC | -0.0247 ± 0.089
140 | CTTCGGAC | -0.0546 ± 0.019
141 | TGATACCA | -0.0856 ± 0.013
142 | GAGAGATC | -0.00216 ± 0.088
143 | AATTGGGT | 0.0374 ± 0.037
144 | TCGATGCA | -0.245 ± 0.018
145 | AAATCGAC | 0.0255 ± 0.034
146 | AAACGCTC | -0.234 ± 0.14
147 | CGTAGCAC | 0.197 ± 0.0064
148 | ATCGCCCA | -0.00832 ± 0.071
149 | CTGACGTC | -0.106 ± 0.12
150 | AGCCGGCG | 0.0102 ± 0.074

Row | Sequence | PBM E-score of 8-mer
151 | ACACGACA | 0.197 ± 0.02
152 | TCCGTAAA | 0.048 ± 0.012
153 | GTAGAGCA | -0.195 ± 0.016
154 | CCCTCGGA | -0.302 ± 0.013
155 | CAGGCCGA | -0.0618 ± 0.018
156 | ACAACGAT | -0.00065 ± 0.016
157 | CTTCTCAC | 0.401 ± 0.011
158 | CGACCCAG | -0.116 ± 0.039
159 | TCTGACCA | -0.263 ± 0.012
160 | CCTCGCAC | 0.396 ± 0.032
161 | ACTCTGGG | -0.134 ± 0.047
162 | AGCGCTCG | 0.101 ± 0.14
163 | CAAGCTGA | -0.133 ± 0.028
164 | CTTCCTTA | -0.0224 ± 0.0045
165 | CCCTGTGC | -0.0572 ± 0.048
166 | GATGTTGA | 0.0152 ± 0.026
167 | GGGGTTTA | -0.00105 ± 0.0085
168 | ACCCTACT | 0.0703 ± 0.013
169 | AAGGGGCA | -0.297 ± 0.042
170 | ATTATGGA | -0.129 ± 0.051
171 | AAATGGGT | 0.065 ± 0.014
172 | CTGATCTC | -0.00624 ± 0.016
